Experimental data from PubChem BioAssay AID488969 (Vanderbilt High Throughput Screening Facility, 2010).
Whole data set: some 110,000 compounds, median “z-score” near -0.1, cut for the highest 2% near 2. This is one part of the list. Calls of active or inactive are those of the source.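 Rule for the calls: active = z-score in the third read window above 3 or below -3; inactive = the rest.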

Target: Metabotropic glutamate receptor 8 (Rattus norvegicus) (UniProt P70579)
Experiment: mGluR8 Gi/Go-coupled signaling modulation – cell-based, rat, thallium flux, HTS, primary screen (AID 488969)
Conditions: HEK293 rat mGluR8, GIRK (G protein-gated inwardly rectifying potassium channel) thallium flux, FluoZin2; at 10 µM; stronger effect = higher value; submaximal glutamate (EC20) added with thallium

Sequence of UniProt P70579 (P70579 whole entry, looked up): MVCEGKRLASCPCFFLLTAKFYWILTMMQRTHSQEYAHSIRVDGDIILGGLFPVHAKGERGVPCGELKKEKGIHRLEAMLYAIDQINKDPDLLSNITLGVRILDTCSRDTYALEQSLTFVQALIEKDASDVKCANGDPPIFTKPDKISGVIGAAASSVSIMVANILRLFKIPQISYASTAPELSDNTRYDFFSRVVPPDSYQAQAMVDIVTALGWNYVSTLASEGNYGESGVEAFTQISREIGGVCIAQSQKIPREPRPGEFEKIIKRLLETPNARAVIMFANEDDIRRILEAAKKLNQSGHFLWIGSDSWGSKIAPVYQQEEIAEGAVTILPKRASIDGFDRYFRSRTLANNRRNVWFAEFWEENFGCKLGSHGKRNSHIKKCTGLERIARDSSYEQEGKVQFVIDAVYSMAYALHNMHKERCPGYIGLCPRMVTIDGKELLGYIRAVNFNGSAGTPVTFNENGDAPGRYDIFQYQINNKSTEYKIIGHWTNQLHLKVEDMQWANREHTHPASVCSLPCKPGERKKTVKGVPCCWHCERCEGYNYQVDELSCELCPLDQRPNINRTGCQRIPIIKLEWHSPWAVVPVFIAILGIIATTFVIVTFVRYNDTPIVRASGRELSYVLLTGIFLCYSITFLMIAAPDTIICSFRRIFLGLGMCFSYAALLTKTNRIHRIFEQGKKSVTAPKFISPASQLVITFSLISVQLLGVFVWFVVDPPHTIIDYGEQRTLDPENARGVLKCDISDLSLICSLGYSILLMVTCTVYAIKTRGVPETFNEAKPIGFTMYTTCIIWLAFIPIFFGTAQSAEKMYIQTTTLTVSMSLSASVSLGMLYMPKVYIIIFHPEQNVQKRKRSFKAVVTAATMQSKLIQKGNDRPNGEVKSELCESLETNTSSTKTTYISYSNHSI

Structure (SMILES)	z-score
Cc1ccc(N(CC(=O)NCc2cccnc2)S(C)(=O)=O)cc1C	0.196
Cc1ccc(S(=O)(=O)N2CCCCC2)cc1NC(=O)COC(=O)Cc1c(F)cccc1Cl	-2.09
Cc1ccc(C(O)(C(=O)NNS(=O)(=O)c2ccc(C)cc2)c2ccc(C)cc2)cc1	0.0411
C=CCn1c(=O)c(C(=O)NCCNCC)c(O)c2ccccc21	0.226
COCCNC(=O)CSc1nc2ccccc2c(=O)n1-c1cccc(OC)c1	1.26
COc1ccc2[nH]c(=O)c(NC(N)=S)nc2c1	0.0038
Cc1nnc(NC(=O)COc2ccc3c(C)cc(=O)oc3c2)s1	-0.0105
Cc1cc(C)c2nc(/N=C(\N)NC(=O)Nc3ccccc3)nc(C)c2c1	-0.308
CC1CCN(c2cc(C#N)c(C#N)cc2[N+](=O)[O-])CC1	-0.204
C=CCn1c(SCC(=O)c2cc(C)n(CCOC)c2C)nc2sc(C)c(C)c2c1=O	-0.255
O=[N+]([O-])c1ccc2nc(SCc3cn4cc(Cl)ccc4n3)[nH]c2c1	-0.392
Cc1ccsc1/C=N/Nc1nc2ccccc2[nH]1	-1.75
O=C(Nc1cccc([N+](=O)[O-])c1)c1ccc(CSc2ccccc2)cc1	-0.556
Cc1n[nH]c(=S)n1/N=C/c1ccc(-c2ccccc2[N+](=O)[O-])o1	-0.049
CCC(=O)NS(=O)(=O)c1cccnc1Nc1ccc(Cl)cc1	-0.641
CSc1nc(Cl)c(Cc2ccc(OC(C)C)cc2)c(N(C)C)n1	-0.0715
C=CCc1c(O)nc(SCC(=O)c2ccccc2)[nH]c1=O	-0.154
CCOC(=O)c1ccc(-c2c(C(=O)OCC)oc3cc(O)c(CC)cc3c2=O)o1	-0.386
Cc1ccccc1C(=O)Nc1ccc2nc3n(c(=O)c2c1)CCC3	active: 3.87
O=C(Nc1ccc(F)c(F)c1)c1ccc(F)c(S(=O)(=O)N2CCOCC2)c1	-0.228
CCOC(=O)c1oc2ccc(CNC3CCCCC3)c(Cl)c2c1C	1.2
Cc1cn(CC2COC(C)(C)O2)c(=O)[nH]c1=O (stereo not given)	0.0183
CCOC(=O)c1c(CN2CCCCC2)n(C)c2cc(Br)c(O)cc12	0.123
CC(C)CCNC(=S)Nc1ccc([N+](=O)[O-])cc1	1.2
Cc1cc(C)nc(NS(=O)(=O)c2ccc(NC(=S)NC(=O)C(C)(C)C)cc2)n1	-0.391
N#Cc1nc(-c2ccccc2Cl)oc1N1CCOCC1	-0.747
COCCCN1C(=O)c2[nH]nc(-c3cc(C)cc(C)c3O)c2C1c1ccc(O)c(OC)c1 (stereo not given)	-0.788
O=C(O)/C(=C/c1ccco1)NC(=O)c1ccccc1	0.0286

Structure (SMILES)	z-score
Cc1cccc(C)c1NC(=O)c1ccc(-n2cncn2)nc1	0.71
O=C(CCCc1ccccc1)c1ccc2c(c1)OCCO2	0.668
CCOP(=O)(OCC)C(Nc1cccc(C)c1)c1ccc(F)cc1 (stereo not given)	-0.171
CSc1nnc(-c2sccc2OCc2ccccc2)n1C	-0.529
CCOC(=O)c1c(C)[nH]c2cc(Br)c(OC)cc12	0.302
O=C(CN1C(=O)C2C3CCC(C3)C2C1=O)OCC(=O)c1cccc([N+](=O)[O-])c1 (stereo not given)	-0.253
CCOc1ccc(NC(=O)CN2CCN(CC(=O)Nc3ccc4c(c3)OCO4)CC2)cc1	0.0576
COc1ccc2c(c1)NC(=O)CC(c1ccccc1)=N2	-0.0551
CCC(=O)N(Cc1cc2cc(OC)ccc2[nH]c1=O)c1cccc(C)c1	-0.0764
CN1CC(=O)N/C1=N\C(=O)Nc1ccc2c(c1)N(C)C(=O)CS2	-0.375
COc1ccc(C(=O)NCCn2cc(SCC(=O)NCc3ccco3)c3ccccc32)cc1	-0.609
CCOC(=O)c1c(-c2ccc(-c3ccccc3)cc2)csc1NC(=O)C1C2CCC(O2)C1C(=O)O (stereo not given)	-0.798
CCN(CC)C(=O)C1CC(=O)OC12CCCCC2 (stereo not given)	-0.477
Cn1cnnc1SCC(=O)Nc1ccc2nc(SCc3ccccc3F)sc2c1	0.22
CCN(CC)CCCN1C(=O)C(O)=C(C(C)=O)C1c1cccc(OC)c1 (stereo not given)	-0.657
COC(=O)c1ccc(C(=O)OC)c(NC(=O)CCC(=O)O)c1	-0.414
CC(C)(C)c1nn(-c2ccccc2)c2[nH]c(=O)c(CNCc3ccc4c(c3)OCO4)cc12	active: -3.84
CC(C)C(=O)Nc1nc2c(ncn2C2CC(O)C(CO)O2)c(=O)[nH]1 (stereo not given)	-0.334
CN(CC(=O)NCc1cccs1)S(=O)(=O)c1cccc2nsnc12	-0.328
CCC(C)NC(=O)COC(=O)c1ccccc1OCC(=O)Nc1ccc(Br)cc1 (stereo not given)	-0.0999
Cc1ccc(NS(=O)(=O)c2cn(C)cn2)cc1	0.665
Cc1ccccc1C(=O)Oc1ccccc1C(=O)N1CCOCC1	-0.0659
COC(=O)C(NC(C)=O)(Nc1nc2c(C)cc(C)cc2s1)C(F)(F)F (stereo not given)	1.39
Cc1ccc(N2C(=O)CC(Cn3nc(C)cc3C)C2=O)cc1 (stereo not given)	-0.128
COC(=O)C1CSC(C(=O)OC)N1C(=O)Nc1c(C)cccc1C (stereo not given)	1.02
O=C(c1cccnc1)N(Cc1ccccc1)c1ccccc1	0.664
O=S(=O)(NCc1ccc(F)cc1)c1ccc2c(c1)OCCO2	-0.787
